Test results taken from paper PMC6919601, “Identification of Plasmodium dipeptidyl aminopeptidase allosteric inhibitors by high throughput screening” (PLoS ONE, 2019).
The campaign covered roughly 110,000 compounds. About 230 (0.21%) showed an effect of 50% or more. The list shows a part of the results.

Target: DPAP1 (Plasmodium falciparum, UniProt Q8IIJ9)
Assay: primary screen, percent inhibition; read by cleavage of a fluorogenic dipeptide substrate; higher = more effect of the substance
Set-up: species or system P. falciparum D10 trophozoite lysates; single well
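Also: 30 min substrate incubation versus DMSO and 10 µM JCP410 controls.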

DPAP1, sequence (Q8IIJ9 whole entry, looked up): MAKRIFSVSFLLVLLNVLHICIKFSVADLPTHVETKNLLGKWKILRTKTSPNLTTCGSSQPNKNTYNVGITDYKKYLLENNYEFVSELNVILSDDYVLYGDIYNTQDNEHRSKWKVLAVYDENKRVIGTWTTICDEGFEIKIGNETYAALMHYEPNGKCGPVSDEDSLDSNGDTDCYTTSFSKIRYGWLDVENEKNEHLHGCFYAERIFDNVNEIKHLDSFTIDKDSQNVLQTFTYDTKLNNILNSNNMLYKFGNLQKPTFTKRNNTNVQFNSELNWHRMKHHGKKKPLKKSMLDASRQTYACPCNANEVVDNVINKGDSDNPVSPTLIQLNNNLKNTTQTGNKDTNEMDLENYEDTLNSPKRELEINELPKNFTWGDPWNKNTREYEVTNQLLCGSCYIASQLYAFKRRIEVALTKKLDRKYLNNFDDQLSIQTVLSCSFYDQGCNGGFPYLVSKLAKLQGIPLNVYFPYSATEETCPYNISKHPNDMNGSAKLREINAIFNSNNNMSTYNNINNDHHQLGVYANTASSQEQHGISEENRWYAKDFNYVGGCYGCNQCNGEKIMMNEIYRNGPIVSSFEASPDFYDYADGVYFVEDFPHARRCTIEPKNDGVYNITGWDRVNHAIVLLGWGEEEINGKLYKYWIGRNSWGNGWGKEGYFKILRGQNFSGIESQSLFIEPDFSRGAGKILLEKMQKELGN

Row | SMILES | % Inhibition @ 10 uM [%]
1 | CCc1nc(SC)ncc1C(=O)NCc1ccc(Cl)cc1 | 1.6
2 | Sc1nc2ccccc2c2nc(CCc3c[nH]c4ccccc34)nn12 | 8.44
3 | CCOc1cccc(C(=O)Nc2cccc(NC(=O)c3cccc(Cl)c3)c2)c1 | 9.65
4 | COc1ccc(C(=O)N2CCN(C(=O)c3cccc(F)c3)CC2)cc1 | -10.8
5 | O=C(CSc1nc2ccsc2c(=O)n1Cc1ccccc1)NCc1ccccc1 | -6.44
6 | CS(=O)(=O)N(Cc1cc2ccccc2nc1O)C1CCCCC1 | 4.18
7 | CCOC(=O)C1=C(c2ccccc2)Nc2nc3ccccc3n2C1c1ccccc1 (stereo not drawn) | 5.12
8 | O=C(O)c1ccccc1NC(=O)C1CC=CCC1C(=O)O (stereo not drawn) | -5.14
9 | CCOC(=O)c1c(CN2CCOCC2)n(C)c2ccc(OC)c(S(=O)(=O)c3ccccc3)c12 | -3.41
10 | CCOc1cc(C2CC(=O)NC3=C2C(=O)CC(c2ccccc2Cl)C3)cc(Cl)c1O (stereo not drawn) | 5.32
11 | COc1cccc(/C=C/C(=O)c2cccs2)c1OC | 0.247
12 | Cc1ccc2oc(=O)c3cnn(CC(=O)NCCN4CCOCC4)c3c2c1 | 3.2
13 | O=C(C1CC1c1ccccc1)N1CCN(C(c2ccccc2)c2ccccc2)CC1 (stereo not drawn) | 2.58
14 | CCCN(CCC)S(=O)(=O)c1csc(C(N)=O)c1 | -4.04
15 | O=C(NCCc1ccccc1)c1ccc(C(=O)NCCc2ccccc2)s1 | 0.0719
16 | Cc1ccccc1NC(=O)CSC1=C(C#N)C(c2cccs2)CC(=O)N1 (stereo not drawn) | -4.49
17 | CC(C)CC1NC(=O)CNC1=O (stereo not drawn) | 1.81
18 | O=[N+]([O-])c1ccc(-c2ncccc2O)cc1 | -5.5
19 | CCCNS(=O)(=O)c1csc(C(N)=O)c1 | -1.68
20 | O=C1C=CCN1c1ccc([N+](=O)[O-])cc1 | -0.415
21 | CCc1nc(SCC(=O)Nc2ccccc2)c(C#N)cc1C | 4.08
22 | CC(C)c1ccc(NC(=O)c2ccccc2[N+](=O)[O-])cc1 | -2
23 | CCC(=O)Nc1ccc(S(=O)(=O)N2CCc3ccccc32)cc1 | 0.709
24 | O=C1OC(OC2CCCCC2)(c2ccccc2)c2ccccc21 (stereo not drawn) | -0.597
25 | CCN1CCCC1CNC(=O)c1nnc(Cc2ccccc2OC)o1 (stereo not drawn) | -4.15
26 | CCOc1cc(-c2cc(N)[nH]n2)cc(OCC)c1OCC | -2.88

Row | SMILES | % Inhibition @ 10 uM [%]
27 | COc1cccc(C2=NOC(C(=O)N3CCC4(CC3)OCCO4)C2)c1OC (stereo not drawn) | 12.8
28 | Brc1cccc(CN2CCN(Cc3ccco3)CC2)c1 | 2.38
29 | CC(=O)N(C)c1ccc(NC(=O)COc2ccccc2)cc1 | -9.66
30 | CCCCC(=O)Nc1ccccc1OCC | 6.23
31 | CC(C)(CNC(=O)Cc1ccc(Cl)cc1)CNC(=O)Cc1ccc(Cl)cc1 | 0.331
32 | CC(NC(=O)c1cccnc1)c1cc2c(cc1Br)OCCO2 (stereo not drawn) | 0.13
33 | CCCCN1C(=O)C2Cc3c([nH]c4ccccc34)C(c3cccc(OC)c3)N2C1=O (stereo not drawn) | 6.43
34 | Cc1cccc(N2C(=O)C3C(C2=O)C2C=CC3C23CC3)c1 (stereo not drawn) | 1.96
35 | Cn1nc(CC(=O)Nc2ncc(Br)s2)c2ccccc2c1=O | 2.8
36 | COc1cccc(-n2c(SCC(=O)NCc3ccco3)nc3nnc(C)c-3c2N)c1 | 4.35
37 | Cc1noc2ncnc(N3CCCC(C(=O)NCCC4=CCCCC4)C3)c12 (stereo not drawn) | -1.88
38 | Oc1ncnc2sc3c(c12)CCCC3 | -7.25
39 | O=C(O)C1CCCCC1C(=O)Nc1nc(-c2ccc(Br)cc2)cs1 (stereo not drawn) | -3.71
40 | Cc1ccc2c(c1)C=CC(C#N)N2C(=O)c1ccccc1 (stereo not drawn) | 6.98
41 | CCCn1c2ccccc2c2cnn(CC(=O)NCc3ccc(CN4CCCCC4CC)o3)c(=O)c21 (stereo not drawn) | 6.56
42 | COc1cccc(C2C3=C(O)CC(C)(C)CC3=NC(C)=C2C(=O)Nc2ccccc2C(F)(F)F)c1 (stereo not drawn) | 2.38
43 | c1ccc(Cn2ncc3ccccc32)cc1 | -3.38
44 | Cc1cccc(C(=O)Nc2ccc(C#N)cc2)c1 | 0.605
45 | COc1ccc(CN2COc3c(Cl)cc4c(C)c(C)c(=O)oc4c3C2)cc1 | -0.808
46 | CSc1ccc(CCNC(=O)CCc2nnc3ccc(N4CCC(C)CC4)nn23)cc1 | -5.85
47 | Cc1cc2c(=O)oc(-c3cccc(Br)c3)nc2s1 | -3.28
48 | NC(=O)NC(c1ccc(Cl)cc1)c1ccccc1Cl (stereo not drawn) | 1.84
49 | O=S(=O)(Nc1cc(Cl)cc(Cl)c1)c1cc(Cl)ccc1Cl | -4.4
50 | Cc1c(C(=O)N2CCCC(C)C2)sc2ncn(CC(=O)N3CC(C)CC(C)C3)c(=O)c12 (stereo not drawn) | -0.458
51 | COc1ccc(-c2cc(C(F)(F)F)nc(SCC(=O)N(C)Cc3cn(C)nc3C)n2)cc1OC | 47.7
52 | O=C(NCCc1c[nH]c2ccccc12)C(c1ccccc1)N1Cc2ccccc2C1=O (stereo not drawn) | -2.13

Row | SMILES | % Inhibition @ 10 uM [%]
53 | Cc1nn(CC(=O)N2CCc3ccccc3C2)c(=O)c2nn(-c3ccccc3)c(C)c12 | 0.931
54 | CCN1CCN(Cc2nc3c(c(=O)n(C)c(=O)n3C)n2Cc2ccccc2)CC1 | 1.23
55 | O=C(Nc1ccc([N+](=O)[O-])cc1)c1cccc(S(=O)(=O)N2CCOCC2)c1 | -5.41
56 | NC(c1ccccc1)P(=O)(O)C(N)c1ccccc1 (stereo not drawn) | -2.18
57 | N#CCNC(=O)[C@H](CCc1ccccc1)NC(=O)c1ccccc1 | -1.83
58 | CCS(=O)(=O)C1=NSC2=NC(=O)/C(=C\c3cc(C)n(-c4ccccc4OC)c3C)C(=N)N21 | -1.58
59 | Cc1ccc2[nH]c3c(c2c1)CCCC3NCc1ccc(Cl)cc1 (stereo not drawn) | 4.42
60 | Cc1nc(-c2ccccc2)nc2[nH]c(-c3ccccc3)cc12 | 4.63
61 | Cc1ccccc1OCCCCCCc1c(C)n[nH]c1C | -2.12
62 | CCOc1cc(CNCc2c(C(=O)O)n(C)c3cc(OC)ccc23)ccc1OC | 4.67
63 | CN1C(=O)S/C(=C/c2ccc(-c3ccc(F)cc3)o2)C1=O | -4.7
64 | CC(C)OCCCNC(=O)CCc1nnc2n(Cc3ccccc3Cl)c(=O)c3ccccc3n12 | -0.692
65 | CC1CN(Cc2ccccc2F)CC(C)O1 (stereo not drawn) | -1.41
66 | COc1ccccc1-c1cc(C(=O)Nc2cc(C)nn2-c2ccccc2)no1 | 23.6
67 | Cc1ccc2c(c1)/C(=C1/SC(=S)NC1=O)C(=O)N2 | 0.878
68 | Cc1ccc2c(c1Br)C1(C(=O)N2)C(C#N)=C(N)OC2=C1C(=O)CC(c1ccccc1)C2 (stereo not drawn) | 19.7
69 | O=C(NCc1ccc2c(c1)OCO2)Nc1ccccc1 | -3.53
70 | CN(C)C(=O)C12CCC(C)(c3nc4cc(Cl)c(Cl)cc4nc31)C2(C)C (stereo not drawn) | -2.98
71 | Cc1nc(-c2ccc(S(=O)(=O)N3CCCC3)cc2)cs1 | -1.43
72 | O=C(CSc1nc(O)c2cnn(-c3ccc(Cl)cc3)c2n1)N1CCOCC1 | -3.35
73 | COc1cccc(N(C(=O)c2ccccc2)C2CC(C)N(C(C)=O)c3ccccc32)c1 (stereo not drawn) | -1.44
74 | CCN(Cc1ccccc1)C(=O)c1c(Cl)nc(C)c(Cl)c1C | -4.35
75 | Cc1ccc(S(N)(=O)=O)cc1NC(=O)C1CC2CCC1C2 (stereo not drawn) | -1.96
76 | CCN(CCO)Cc1csc2ccc(C(C)(C)C)cc12 | 0.408
77 | CN1CCN(CC(O)Cn2cc(/C=C/C(=O)c3ccc(Br)cc3)c3ccccc32)CC1 (stereo not drawn) | 1.64
78 | CCC1CCCCN1C1CC(=O)N(c2ccccc2)C1=O (stereo not drawn) | 2.38

Row | SMILES | % Inhibition @ 10 uM [%]
79 | COc1ccc(NCC(=O)Nc2ccc(F)cc2)cc1 | -4.59
80 | CC(NC(=O)c1cccc(NC(=O)c2ccccc2)c1)c1ccccc1 (stereo not drawn) | 5.14
81 | Cc1ccc(OC(C)C(=O)Nc2cccc3ccccc23)cc1 (stereo not drawn) | 5.69
82 | O=C1C2C3C=CC(C3)C2C(=O)N1c1ccc(N2C(=O)C3C4CCC(C4)C3C2=O)cc1 (stereo not drawn) | 0.674
83 | Cc1ccn(-c2ccccc2)n1 | -4.74
84 | CCOC(=O)C1=C(CC)OC(N)=C(C#N)C1c1ccccc1 (stereo not drawn) | -8.76
85 | COc1ccc(OC)c2c(C)cc(C)nc12 | 3.32
86 | CCn1c2ccccc2c2cc(NC(=O)c3ccc4ccccc4c3)ccc21 | -1.69
87 | Cc1ccc(C)c(CN2CCN(c3ccccc3F)CC2)c1 | 3.16
88 | Cc1ccc(CNC(=O)C(Cc2ccccc2)NS(=O)(=O)c2cccs2)cc1 (stereo not drawn) | -2.49
89 | Cc1ccc2oc(=O)c3cc(C(=O)N4CCCC(C)C4)sc3c2c1 (stereo not drawn) | -1.84
90 | O=C(Nc1nc(-c2ccccc2)cc(C(F)(F)F)n1)NS(=O)(=O)Oc1ccccc1Cl | 1.03
91 | CCC1CCCCN1CCCNC(=O)Cn1nc(C)n2c(cc3c(OC)cccc32)c1=O (stereo not drawn) | 4.65
92 | O=C(O)C1CCCCC1C(=O)NC1CCCC1 (stereo not drawn) | 0.431
93 | Nc1nc(Cc2ccsc2)nc2sc3c(c12)CCCC3 | 49.8
94 | COc1ccc(OC)c(/C=C2\C(=O)NC(=O)N(C)C2=O)c1 | 5.12
95 | CCCCc1ccc(NC(=O)c2ccoc2C)cc1 | 1.57
96 | CCc1n(CC(O)COCc2ccccc2)c2ccccc2[n+]1C (stereo not drawn) | 1.31
97 | O=C(c1ccc(Br)cc1)N1CCN(c2ccccc2)CC1 | -3.85
98 | Cc1cccc(C)c1NC(=O)CN1C(=O)S/C(=C\c2cccn2C)C1=O | -16.7
99 | COc1cc2c(cc1OC)C(C(=O)NC1CCCCC1)C(c1ccccc1F)N(C)C2=O (stereo not drawn) | 4.79
100 | CCOc1ccc(-c2csc(/C(C#N)=C/c3ccccc3OCC)n2)cc1 | 0.912
101 | c1ccc2c(OCCN3CCCC3)cccc2c1 | -1.15
102 | COc1ccccc1C(=O)C1C(=O)NC2(C)CC1c1cc(Cl)ccc1O2 (stereo not drawn) | 0.907
